Source: paper PMC8860585
Results are given in words; binding and its absence hold for the method and conditions named. In cells and extracts the contact can be indirect. Some binding calls cover weakened binding; strength is not graded here.

Sequences of proteins named here, by UniProt entry; tags and fusion partners are left off. A change or cut given only in a name is not applied to a line headed by its entry. A line that says so, or that is headed by a name, gives the form on record, which may keep a tag or linker.
UniProt Q9HAW4: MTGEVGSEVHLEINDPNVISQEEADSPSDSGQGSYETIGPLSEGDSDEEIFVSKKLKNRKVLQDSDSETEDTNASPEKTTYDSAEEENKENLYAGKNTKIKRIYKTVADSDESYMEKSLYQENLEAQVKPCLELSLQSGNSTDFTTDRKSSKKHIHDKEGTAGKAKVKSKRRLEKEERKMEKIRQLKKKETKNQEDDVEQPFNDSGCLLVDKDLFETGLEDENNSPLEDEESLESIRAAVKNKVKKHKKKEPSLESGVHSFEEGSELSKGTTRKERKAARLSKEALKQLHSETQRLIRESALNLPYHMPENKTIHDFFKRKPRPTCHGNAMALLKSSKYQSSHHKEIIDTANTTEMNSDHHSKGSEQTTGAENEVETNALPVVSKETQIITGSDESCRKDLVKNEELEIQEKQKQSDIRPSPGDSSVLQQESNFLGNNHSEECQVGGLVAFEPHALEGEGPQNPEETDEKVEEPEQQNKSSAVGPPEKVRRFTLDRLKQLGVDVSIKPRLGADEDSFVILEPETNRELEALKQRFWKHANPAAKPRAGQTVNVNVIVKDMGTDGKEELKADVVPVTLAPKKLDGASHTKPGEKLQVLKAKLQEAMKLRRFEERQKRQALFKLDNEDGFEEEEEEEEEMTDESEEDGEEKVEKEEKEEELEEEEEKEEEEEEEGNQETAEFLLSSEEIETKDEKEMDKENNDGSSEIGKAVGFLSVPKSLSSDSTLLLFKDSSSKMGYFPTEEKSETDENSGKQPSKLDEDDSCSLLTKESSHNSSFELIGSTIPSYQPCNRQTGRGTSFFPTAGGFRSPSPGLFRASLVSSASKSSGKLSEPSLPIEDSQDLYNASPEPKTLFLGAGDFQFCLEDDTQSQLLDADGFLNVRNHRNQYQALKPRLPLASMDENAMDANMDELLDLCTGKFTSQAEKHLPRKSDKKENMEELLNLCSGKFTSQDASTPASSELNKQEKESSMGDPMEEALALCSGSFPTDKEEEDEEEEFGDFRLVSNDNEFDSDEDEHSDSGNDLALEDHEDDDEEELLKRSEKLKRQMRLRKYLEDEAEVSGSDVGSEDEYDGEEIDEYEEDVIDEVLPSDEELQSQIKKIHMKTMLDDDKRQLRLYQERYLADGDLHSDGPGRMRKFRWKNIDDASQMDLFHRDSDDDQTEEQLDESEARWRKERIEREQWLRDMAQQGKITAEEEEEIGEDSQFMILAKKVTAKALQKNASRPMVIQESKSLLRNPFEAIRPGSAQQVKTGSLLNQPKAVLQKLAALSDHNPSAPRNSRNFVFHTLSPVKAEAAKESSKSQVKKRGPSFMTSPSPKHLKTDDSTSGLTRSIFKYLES
CLASPIN Δ401–500 (Q9HAW4, form named): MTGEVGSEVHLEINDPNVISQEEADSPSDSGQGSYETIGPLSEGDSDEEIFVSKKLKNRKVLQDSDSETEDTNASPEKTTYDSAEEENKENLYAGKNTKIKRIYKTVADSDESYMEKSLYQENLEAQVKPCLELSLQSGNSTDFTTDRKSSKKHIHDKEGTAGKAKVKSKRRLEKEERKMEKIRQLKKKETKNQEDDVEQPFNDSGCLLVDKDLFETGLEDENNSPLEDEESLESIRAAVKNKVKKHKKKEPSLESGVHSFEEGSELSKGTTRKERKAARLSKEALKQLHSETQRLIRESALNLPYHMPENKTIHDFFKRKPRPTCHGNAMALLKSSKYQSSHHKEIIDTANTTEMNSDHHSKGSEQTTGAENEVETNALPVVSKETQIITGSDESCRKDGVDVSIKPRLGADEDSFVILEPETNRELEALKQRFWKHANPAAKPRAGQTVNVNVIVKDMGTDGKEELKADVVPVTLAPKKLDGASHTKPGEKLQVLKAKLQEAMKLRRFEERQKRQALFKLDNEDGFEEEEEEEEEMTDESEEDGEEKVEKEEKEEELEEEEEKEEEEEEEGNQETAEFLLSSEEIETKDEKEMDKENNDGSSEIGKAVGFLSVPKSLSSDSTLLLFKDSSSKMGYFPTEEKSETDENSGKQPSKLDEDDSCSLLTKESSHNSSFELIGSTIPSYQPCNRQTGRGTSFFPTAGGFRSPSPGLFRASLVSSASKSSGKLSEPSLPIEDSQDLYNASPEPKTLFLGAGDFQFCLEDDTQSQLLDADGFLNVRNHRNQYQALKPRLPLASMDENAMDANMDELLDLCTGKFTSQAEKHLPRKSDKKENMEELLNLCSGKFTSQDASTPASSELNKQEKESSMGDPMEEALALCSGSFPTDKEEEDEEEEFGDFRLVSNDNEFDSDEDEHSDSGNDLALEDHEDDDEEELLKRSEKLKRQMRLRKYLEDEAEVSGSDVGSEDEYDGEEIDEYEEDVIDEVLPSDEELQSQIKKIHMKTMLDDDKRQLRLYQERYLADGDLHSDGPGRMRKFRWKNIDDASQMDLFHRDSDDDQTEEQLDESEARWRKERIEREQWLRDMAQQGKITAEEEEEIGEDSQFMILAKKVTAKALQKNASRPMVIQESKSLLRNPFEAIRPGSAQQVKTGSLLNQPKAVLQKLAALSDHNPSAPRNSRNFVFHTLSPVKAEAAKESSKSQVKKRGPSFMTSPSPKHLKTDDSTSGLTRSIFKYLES
FLAG-CLASPIN ΔF3 mutant (Q9HAW4, form named): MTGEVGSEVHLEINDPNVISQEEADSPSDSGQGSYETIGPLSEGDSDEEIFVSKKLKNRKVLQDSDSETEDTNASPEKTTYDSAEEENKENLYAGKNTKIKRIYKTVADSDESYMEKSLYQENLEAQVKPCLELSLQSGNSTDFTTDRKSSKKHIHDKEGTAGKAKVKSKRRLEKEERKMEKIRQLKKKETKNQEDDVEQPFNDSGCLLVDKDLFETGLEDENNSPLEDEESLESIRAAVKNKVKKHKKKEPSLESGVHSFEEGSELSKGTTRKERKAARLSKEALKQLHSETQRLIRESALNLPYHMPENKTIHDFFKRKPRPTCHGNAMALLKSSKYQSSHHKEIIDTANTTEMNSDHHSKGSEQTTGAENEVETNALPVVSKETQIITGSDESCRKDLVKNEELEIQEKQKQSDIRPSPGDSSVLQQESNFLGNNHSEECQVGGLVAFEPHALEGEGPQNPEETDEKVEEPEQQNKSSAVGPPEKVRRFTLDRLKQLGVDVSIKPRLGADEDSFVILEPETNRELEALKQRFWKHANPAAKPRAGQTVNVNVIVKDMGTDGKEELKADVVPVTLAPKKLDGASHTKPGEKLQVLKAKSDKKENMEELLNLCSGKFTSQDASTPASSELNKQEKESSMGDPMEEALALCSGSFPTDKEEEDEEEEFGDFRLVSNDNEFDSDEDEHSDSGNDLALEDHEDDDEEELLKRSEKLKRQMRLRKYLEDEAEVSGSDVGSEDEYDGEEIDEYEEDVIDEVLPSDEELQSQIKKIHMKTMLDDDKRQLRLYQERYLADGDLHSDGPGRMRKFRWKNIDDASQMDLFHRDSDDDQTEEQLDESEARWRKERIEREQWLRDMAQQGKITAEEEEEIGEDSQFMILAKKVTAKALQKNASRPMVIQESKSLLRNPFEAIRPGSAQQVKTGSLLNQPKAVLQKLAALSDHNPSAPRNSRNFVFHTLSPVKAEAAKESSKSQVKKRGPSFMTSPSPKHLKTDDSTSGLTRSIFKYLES
CLASPIN Δ331–400 (Q9HAW4, form named): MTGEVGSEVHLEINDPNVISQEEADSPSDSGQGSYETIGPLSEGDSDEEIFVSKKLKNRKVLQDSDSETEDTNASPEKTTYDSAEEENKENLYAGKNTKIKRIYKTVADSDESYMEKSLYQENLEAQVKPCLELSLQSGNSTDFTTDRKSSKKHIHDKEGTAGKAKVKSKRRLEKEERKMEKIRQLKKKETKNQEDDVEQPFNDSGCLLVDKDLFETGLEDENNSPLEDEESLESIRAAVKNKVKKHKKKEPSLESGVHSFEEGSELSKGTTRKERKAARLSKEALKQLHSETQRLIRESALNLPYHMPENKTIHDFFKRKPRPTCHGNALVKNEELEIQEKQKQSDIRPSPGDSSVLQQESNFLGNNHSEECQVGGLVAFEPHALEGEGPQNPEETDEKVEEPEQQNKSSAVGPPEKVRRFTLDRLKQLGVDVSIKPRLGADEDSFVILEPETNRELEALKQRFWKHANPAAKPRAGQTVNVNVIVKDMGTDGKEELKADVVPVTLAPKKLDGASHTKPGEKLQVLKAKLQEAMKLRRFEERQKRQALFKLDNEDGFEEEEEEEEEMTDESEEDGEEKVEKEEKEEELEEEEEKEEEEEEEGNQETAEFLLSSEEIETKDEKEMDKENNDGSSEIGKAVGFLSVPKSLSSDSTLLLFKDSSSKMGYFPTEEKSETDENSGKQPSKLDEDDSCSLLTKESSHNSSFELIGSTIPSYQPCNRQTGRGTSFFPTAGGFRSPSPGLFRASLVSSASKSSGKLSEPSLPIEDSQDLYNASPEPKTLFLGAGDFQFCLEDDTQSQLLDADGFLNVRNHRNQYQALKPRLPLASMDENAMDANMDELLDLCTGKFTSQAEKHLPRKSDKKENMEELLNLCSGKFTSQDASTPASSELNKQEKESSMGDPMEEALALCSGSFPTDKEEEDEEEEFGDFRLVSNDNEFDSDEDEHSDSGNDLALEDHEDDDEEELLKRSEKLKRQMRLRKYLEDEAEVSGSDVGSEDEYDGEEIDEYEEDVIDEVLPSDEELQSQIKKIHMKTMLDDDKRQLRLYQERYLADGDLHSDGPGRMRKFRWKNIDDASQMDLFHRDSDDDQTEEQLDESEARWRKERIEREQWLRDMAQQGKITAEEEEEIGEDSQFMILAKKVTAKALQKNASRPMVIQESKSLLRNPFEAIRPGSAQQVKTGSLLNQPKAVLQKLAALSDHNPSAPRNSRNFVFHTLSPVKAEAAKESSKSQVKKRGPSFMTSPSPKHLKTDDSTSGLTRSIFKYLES
FLAG-CLASPINΔ501–600aa (Q9HAW4, form named): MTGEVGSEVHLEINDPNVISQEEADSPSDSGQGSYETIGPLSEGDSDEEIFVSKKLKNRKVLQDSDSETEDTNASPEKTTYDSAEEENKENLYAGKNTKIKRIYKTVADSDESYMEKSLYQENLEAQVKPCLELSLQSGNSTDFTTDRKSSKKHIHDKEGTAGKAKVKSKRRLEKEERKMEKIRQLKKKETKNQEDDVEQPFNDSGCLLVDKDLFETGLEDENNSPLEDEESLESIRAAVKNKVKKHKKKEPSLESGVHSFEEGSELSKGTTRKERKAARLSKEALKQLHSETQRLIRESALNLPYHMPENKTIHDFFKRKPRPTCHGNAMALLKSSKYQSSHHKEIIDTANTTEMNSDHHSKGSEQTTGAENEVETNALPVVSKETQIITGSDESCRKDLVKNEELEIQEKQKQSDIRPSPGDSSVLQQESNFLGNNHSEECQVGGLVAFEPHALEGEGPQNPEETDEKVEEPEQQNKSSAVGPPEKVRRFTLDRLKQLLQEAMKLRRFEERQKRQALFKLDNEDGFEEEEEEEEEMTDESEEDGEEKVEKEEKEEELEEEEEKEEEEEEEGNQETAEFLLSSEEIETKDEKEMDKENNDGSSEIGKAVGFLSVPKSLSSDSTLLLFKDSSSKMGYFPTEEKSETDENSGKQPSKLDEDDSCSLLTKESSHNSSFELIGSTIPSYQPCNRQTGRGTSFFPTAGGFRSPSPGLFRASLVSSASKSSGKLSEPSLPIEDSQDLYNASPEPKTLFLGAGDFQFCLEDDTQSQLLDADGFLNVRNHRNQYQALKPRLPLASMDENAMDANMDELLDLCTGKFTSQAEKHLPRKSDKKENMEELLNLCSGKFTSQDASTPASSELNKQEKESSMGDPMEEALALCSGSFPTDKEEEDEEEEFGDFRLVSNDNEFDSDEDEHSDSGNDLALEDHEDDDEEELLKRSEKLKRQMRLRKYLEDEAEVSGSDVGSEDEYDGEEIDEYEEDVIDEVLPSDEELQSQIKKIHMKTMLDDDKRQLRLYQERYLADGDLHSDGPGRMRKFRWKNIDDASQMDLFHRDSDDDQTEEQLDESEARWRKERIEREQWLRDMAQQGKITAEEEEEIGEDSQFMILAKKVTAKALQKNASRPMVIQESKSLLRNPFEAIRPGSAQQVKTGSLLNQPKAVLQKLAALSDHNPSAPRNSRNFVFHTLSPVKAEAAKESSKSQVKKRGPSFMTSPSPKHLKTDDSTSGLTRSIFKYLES
UniProt P19474: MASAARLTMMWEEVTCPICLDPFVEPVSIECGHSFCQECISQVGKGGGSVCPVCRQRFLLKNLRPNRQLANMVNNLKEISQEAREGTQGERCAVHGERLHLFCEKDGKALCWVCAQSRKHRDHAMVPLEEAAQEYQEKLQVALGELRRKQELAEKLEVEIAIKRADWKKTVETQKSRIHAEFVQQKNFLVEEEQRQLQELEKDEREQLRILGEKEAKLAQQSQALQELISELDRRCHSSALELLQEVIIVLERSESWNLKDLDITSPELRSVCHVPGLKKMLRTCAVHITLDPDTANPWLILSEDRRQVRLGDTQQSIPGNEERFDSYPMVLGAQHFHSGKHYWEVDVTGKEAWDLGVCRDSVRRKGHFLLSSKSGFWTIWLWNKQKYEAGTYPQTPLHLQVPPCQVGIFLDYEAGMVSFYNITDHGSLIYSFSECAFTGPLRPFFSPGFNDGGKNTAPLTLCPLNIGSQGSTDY

Tests used:
CLASPIN Δ401–500 (human) = CLASPIN Δ401–500 (human) (UniProt Q9HAW4); experiment: co-IP; HEK293T cells co-transfected with tagged proteins, lysed in NETN buffer, anti-FLAG M2 beads 4 h, 4°C, immunoblot; in some panels cells mock-treated or treated with 2 mM HU for 1 h, or transfected with siNC or siTRIM21
FLAG-CLASPIN (human) = FLAG-CLASPIN (human) (UniProt Q9HAW4); experiment: as above
[1] = target: FLAG-CLASPIN ΔF3 mutant (human) (UniProt Q9HAW4); experiment: as above
CLASPIN Δ331–400 (human) = CLASPIN Δ331–400 (human) (UniProt Q9HAW4); experiment: as above
[2] = target: FLAG-CLASPINΔ501–600aa (human) (UniProt Q9HAW4); experiment: as above
[3] = target: FLAG-tagged CLASPIN ΔF2 mutant (human) (UniProt Q9HAW4); experiment: as above
[4] = target: CLASPIN (endogenous) (human (endogenous in HEK293T)) (UniProt Q9HAW4); experiment: co-IP; endogenous proteins; HEK293T lysate in NETN buffer (100 mM NaCl, 1 mM EDTA, 20 mM Tris-HCl pH 8.0, 0.5% NP-40), anti-CLASPIN antibody 4 h then protein A beads, 4°C; untreated cells and cells treated with 2 mM HU for the indicated times
FLAG-TRIM21 (human) = FLAG-TRIM21 (human) (UniProt P19474); experiment: co-IP; HEK293T cells co-transfected with tagged proteins, lysed in NETN buffer, anti-FLAG M2 beads 4 h, 4°C, immunoblot; in some panels cells mock-treated or treated with 2 mM HU for 1 h, or transfected with siNC or siTRIM21

In the case of HA-TRIM21 (from UniProt P19474 1-475), the binding (CLASPIN Δ401–500 (human)) was “binds”, the binding (FLAG-CLASPIN (human)) was “binds” and the binding [1] was “binds”. The binding (CLASPIN Δ331–400 (human)) was “binds”, the binding [2] was “binds” and the binding [3] was “no binding”.

“TRIM21 (endogenous) (from UniProt P19474 1-475)” was tested, and the binding [4] was “binds”.

In the case of HA-CLASPIN (from UniProt Q9HAW4 1-1339), the binding (FLAG-TRIM21 (human)) was “binds”.
